Results reported in the supplement of paper PMC4604168 (melanoma cell lines).
The other results are listed elsewhere or left out. Single values are uncertain, as repeats are few or missing.

Tested on: WM1745
Test: cell count relative to DMSO control; melanoma cells; higher = more viable cells
Conditions: library dose: standard library concentration; 72 h
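Also: cells treated in 1,536-well plates, then fixed and DAPI-stained, with nuclei counted from automated high-throughput microscope images.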

Compound	cell count [%]
CS(=O)(=O)c1ccc(C(=O)Nc2ccc(Cl)c(-c3ccccn3)c2)c(Cl)c1 [vismodegib] + Cn1c(Nc2ccc(C(F)(F)F)cc2)nc2cc(Oc3ccnc(-c4ncc(C(F)(F)F)[nH]4)c3)ccc21 [CHIR265] (first compound 5 µM, partner dose 0.4 µM)	70.2
CS(=O)(=O)c1ccc(C(=O)Nc2ccc(Cl)c(-c3ccccn3)c2)c(Cl)c1 [vismodegib] + O=C(CCCCCCC(=O)Nc1ccccc1)NO [vorinostat] (first compound 5 µM, partner dose 0.4 µM)	76.5
CS(=O)(=O)c1ccc(C(=O)Nc2ccc(Cl)c(-c3ccccn3)c2)c(Cl)c1 [vismodegib] + Cc1cc(Nc2cc(N3CCN(C)CC3)nc(/C=C/c3ccccc3)n2)n[nH]1 [ENMD2076] (first compound 5 µM, partner dose 0.2 µM)	65.7
CS(=O)(=O)c1ccc(C(=O)Nc2ccc(Cl)c(-c3ccccn3)c2)c(Cl)c1 [vismodegib] + OCc1c[nH]c2ccccc12 [Indole-3-carbinol] (first compound 5 µM, partner dose 4 µM)	92.1
CN(c1ncccc1CNc1nc(Nc2ccc3c(c2)CC(=O)N3)ncc1C(F)(F)F)S(C)(=O)=O + C[C@]1(c2nc3c(C(N)=O)cccc3[nH]2)CCCN1 [Veliparib] (first compound 0.4 µM, partner dose 7 µM)	62.3
C=C(c1ccc(C(=O)O)cc1)c1cc2c(cc1C)C(C)(C)CCC2(C)C [Bexarotene] + Cc1ccc(NC(=O)c2cccc(N(C)C)c2)cc1NC(=O)c1ccc(O)cc1 [ZM336372] (first compound 10 µM, partner dose 10 µM)	76.2
CCCS(=O)(=O)Nc1ccc(F)c(C(=O)c2c[nH]c3ncc(Cl)cc23)c1F + CC1(C)NC(=O)N(c2ccc([N+](=O)[O-])c(C(F)(F)F)c2)C1=O [nilutamide] (first compound 0.4 µM, partner dose 5 µM)	83.4
CS(=O)(=O)c1ccc(C(=O)Nc2ccc(Cl)c(-c3ccccn3)c2)c(Cl)c1 [vismodegib] + C[C@@H]1CCN(C(=O)CC#N)C[C@@H]1N(C)c1ncnc2[nH]ccc12 [CP690550] (first compound 5 µM, partner dose 5 µM)	83.4
NC1(c2ccc(-c3nc4ccn5c(=O)[nH]nc5c4cc3-c3ccccc3)cc2)CCC1 + CN(NC(=O)CC(=O)NN(C)C(=S)c1ccccc1)C(=S)c1ccccc1 [STA4783] (first compound 2 µM, partner dose 0.03 µM)	20.6
CS(=O)(=O)c1ccc(C(=O)Nc2ccc(Cl)c(-c3ccccn3)c2)c(Cl)c1 [vismodegib] + Nc1ccn([C@@H]2O[C@H](CO)[C@@H](O)C2(F)F)c(=O)n1 [gemcitabine] (first compound 5 µM, partner dose 0.002 µM)	65.7
CCCS(=O)(=O)Nc1ccc(F)c(C(=O)c2c[nH]c3ncc(Cl)cc23)c1F + O=C(CCCCCCC(=O)Nc1ccccc1)NO [vorinostat] (first compound 0.4 µM, partner dose 0.4 µM)	69.6
CN(c1ncccc1CNc1nc(Nc2ccc3c(c2)CC(=O)N3)ncc1C(F)(F)F)S(C)(=O)=O + Cn1nnc2c(C(N)=O)ncn2c1=O [temozolomide] (first compound 0.4 µM, partner dose 10 µM)	75.2
CCCS(=O)(=O)Nc1ccc(F)c(C(=O)c2c[nH]c3ncc(Cl)cc23)c1F + COc1ccc(Cl)c(Nc2nc3ccccc3nc2NS(=O)(=O)c2cccc(NC(=O)C(C)(C)N)c2)c1 [XL147] (first compound 0.4 µM, partner dose 4 µM)	69.6
NC1(c2ccc(-c3nc4ccn5c(=O)[nH]nc5c4cc3-c3ccccc3)cc2)CCC1 + Cn1c(=O)n(-c2ccc(C(C)(C)C#N)cc2)c2c3cc(-c4cnc5ccccc5c4)ccc3ncc21 [NVP-BEZ235] (first compound 2 µM, partner dose 0.02 µM)	67
NC1(c2ccc(-c3nc4ccn5c(=O)[nH]nc5c4cc3-c3ccccc3)cc2)CCC1 + Cc1nc(Nc2ncc(C(=O)Nc3c(C)cccc3Cl)s2)cc(N2CCN(CCO)CC2)n1 [dasatanib] (first compound 2 µM, partner dose 0.02 µM)	37.4
NC1(c2ccc(-c3nc4ccn5c(=O)[nH]nc5c4cc3-c3ccccc3)cc2)CCC1 + O=C(Nc1cccc(Cl)c1)Nc1ncc(CCNc2ncnc3ccsc23)s1 [SNS314] (first compound 2 µM, partner dose 0.004 µM)	85.2
CCCS(=O)(=O)Nc1ccc(F)c(C(=O)c2c[nH]c3ncc(Cl)cc23)c1F + Cc1ccc(NC(=O)c2cccc(N(C)C)c2)cc1NC(=O)c1ccc(O)cc1 [ZM336372] (first compound 0.4 µM, partner dose 10 µM)	73.1
CCCS(=O)(=O)Nc1ccc(F)c(C(=O)c2c[nH]c3ncc(Cl)cc23)c1F + Nc1nc(F)nc2c1ncn2[C@@H]1O[C@H](CO)[C@@H](O)[C@@H]1O [fludarabine] (first compound 0.4 µM, partner dose 1 µM)	95.6
CS(=O)(=O)c1ccc(C(=O)Nc2ccc(Cl)c(-c3ccccn3)c2)c(Cl)c1 [vismodegib] + C[C@@H](Oc1cc(-c2cnn(C3CCNCC3)c2)cnc1N)c1c(Cl)ccc(F)c1Cl [Crizotinib] (first compound 5 µM, partner dose 1 µM)	81.3
C=C(c1ccc(C(=O)O)cc1)c1cc2c(cc1C)C(C)(C)CCC2(C)C [Bexarotene] + CC1(C)NC(=O)N(c2ccc([N+](=O)[O-])c(C(F)(F)F)c2)C1=O [nilutamide] (first compound 10 µM, partner dose 5 µM)	79.1
NC1(c2ccc(-c3nc4ccn5c(=O)[nH]nc5c4cc3-c3ccccc3)cc2)CCC1 + C[C@@H]1CCN(C(=O)CC#N)C[C@@H]1N(C)c1ncnc2[nH]ccc12 [CP690550] (first compound 2 µM, partner dose 5 µM)	74.5
CN(c1ncccc1CNc1nc(Nc2ccc3c(c2)CC(=O)N3)ncc1C(F)(F)F)S(C)(=O)=O + CC(=O)c1c(C)c2cnc(Nc3ccc(N4CCNCC4)cn3)nc2n(C2CCCC2)c1=O [palbociclib] (first compound 0.4 µM, partner dose 0.2 µM)	46.6
C=C(c1ccc(C(=O)O)cc1)c1cc2c(cc1C)C(C)(C)CCC2(C)C [Bexarotene] + CN(C)S(=O)(=O)c1ccc2c(c1)/C(=C/c1cc3c([nH]1)CCCC3)C(=O)N2 [SU6656] (first compound 10 µM, partner dose 2 µM)	68.7
CCCS(=O)(=O)Nc1ccc(F)c(C(=O)c2c[nH]c3ncc(Cl)cc23)c1F + O=C(O)c1ccc(-c2c[nH]c3ncc(-c4ccccc4)cc23)cc1C1CCCC1 [GSK650394] (first compound 0.4 µM, partner dose 0.8 µM)	65.1
CS(=O)(=O)c1ccc(C(=O)Nc2ccc(Cl)c(-c3ccccn3)c2)c(Cl)c1 [vismodegib] + CCCS(=O)(=O)Nc1ccc(F)c(C(=O)c2c[nH]c3ncc(Cl)cc23)c1F [PLX4720] (first compound 5 µM, partner dose 0.4 µM)	80.2
